In all, about 370,000 compounds went through this assay and about 500 (0.14%) were called active. The shares of active, inactive and inconclusive entries below differ from those in the screen. The call rests on the fitted dose curve; in most records, active means well fitted activation curve with a large enough effect; inconclusive means small, poorly fitted or top-dose-only effect; inactive means no such curve, though single readings can be large or run the other way. No potency is given beside an inconclusive call; the fits are too rough.
Assay: qHTS of alpha-syn Inhibitors; further: nearly all actives have a fitted effect of over 65% in size; on growth rescue (activation): % of control where 0% means no effect
Settings: Yeast expressing alpha-synuclein, BacTiter-Glo, 24 h; Potency: growth rescue unless noted; growth rescue (activation): at 46.1 µM (top of the series) unless noted
Method in brief: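 Galactose-induced alpha-syn yeast (OD600=0.02, raffinose-pregrown) + pinned cpd, 24 hr, 30 deg C; growth by BacTiter-Glo luminescence. Growth restoration scores as activation.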
With `Cc1ccc(C)c(N(C)C(=O)CCS(=O)(=O)c2cccc3nonc23)c1` the Potency was inconclusive [activator, single point].
With `O=S(=O)(c1ccc(F)cc1)N1CCN(c2nc(-c3ccccc3)nc3cc(Cl)ccc23)CC1` the Potency was “inactive”.
With `O=c1cc(-c2ccccc2)[nH]n1-c1nc2ccccc2[nH]1` the Potency was inconclusive [activator, single point].
For `O=C(NCC1CCCO1)c1cccc2c1C(=O)c1ccc(N3CCC(Cc4ccccc4)CC3)cc1S2(=O)=O` (stereo unspecified), the Potency was “inactive”.
For `CCc1cccc(NS(=O)(=O)c2c(C)nc3scc(C)n3c2=O)c1`, the growth rescue (activation) was inconclusive: -49.3% [activator].
For `CCC(CC)CN1C(N(C)C)=NC[C@@H]1CC(C)C`, the Potency was inconclusive [activator, single point].
In the case of `N#Cc1nc(-c2ccco2)oc1N1CCOCC1`, the Potency is reported as inconclusive [activator, single point].
In the case of `N/C(=N\OC(=O)c1cc(-c2ccccc2)nc2ccccc12)c1ccncc1`, the Potency is reported as inconclusive [activator, partial curve].
In the case of `FC(F)Oc1ccccc1C1CC(c2ccc(Br)s2)Nc2ncnn21` (stereo unspecified), the Potency is reported as inconclusive [activator, single point].
For `COc1ccc(C2CC(c3cccc(Br)c3)=NN2c2ccc(S(N)(=O)=O)cc2)cc1` (stereo unspecified), the Potency was inconclusive [activator, single point].
With `Cc1ccc(S(=O)(=O)N2CCC(=O)N(C(CO)Cc3ccccc3)CC2)cc1` (stereo unspecified) the Potency was inconclusive [activator, partial curve, poor fit].
For `CCOC1=C2CN(S(=O)(=O)c3ccc(C)cc3)[C@H](c3ccccc3)C[C@@H]2N(S(C)(=O)=O)[C@H](c2ccccc2)C1`, the Potency was inconclusive [activator, single point].
In the case of `C=CC[C@]12C=C(OC)C(=O)C(OC)=C1O[C@@H](c1ccc3c(c1)OCO3)[C@H]2C`, the Potency is reported as “inactive”.
With `Cc1cc(C)n(-c2nc(Nc3ccccc3C(F)(F)F)nc(-n3nc(C)cc3C)n2)n1` the Potency was inconclusive [activator, single point].
For `Cc1cccc(NS(=O)(=O)c2ccc(C)c(C(=O)NNC(=O)c3csc(N4CCOCC4)n3)c2)c1`, the Potency was inconclusive [activator, single point].
With `CCCN1Cc2cccc(C(=O)Nc3ccc(OC)c(OC)c3)c2C1=O` the Potency was inconclusive [activator, single point].
With `Fc1ccc(Oc2nc(-c3ccccc3)nnc2C(F)(F)F)cc1` the Potency was inconclusive [activator, single point].
With `COc1ccc(/C=N/NC(=O)CCCOc2ccc(Cl)cc2Cl)cc1` the Potency was inconclusive [activator, single point].
For `Cc1ccc(-c2ccc(CN3C(C)C(=O)N(Cc4cn(Cc5ccco5)nn4)CCS3(=O)=O)cc2)c(C)c1` (stereo unspecified), the Potency was inconclusive [activator, single point].
For `CC(C)NC(=O)c1ccc2sc([C@@H]3O[C@H](CO)[C@H](O)[C@H](O)[C@H]3O)nc2c1`, the Potency was inconclusive [activator, single point].
In the case of `Cc1cc(C)n2c(Nc3ccc4c(c3)OCCO4)c(CCc3ccccc3)nc2n1`, the Potency is reported as inconclusive [activator, single point].
With `N/C(=N\OC(=O)COc1ccc2ccccc2c1)c1ccccn1` the Potency was inconclusive [activator, single point].
With `O=C(Nc1ccccc1C(=O)O)c1cccc(NC(=O)c2ccco2)c1` the Potency was “inactive”.
In the case of `Cc1ccc(C#N)c(SCc2nnc(-c3ccc(Cl)cc3)o2)n1`, the Potency is reported as inconclusive [activator, single point].
In the case of `O=C1c2ccccc2C(=O)N1CCc1csc(-c2ccccc2)n1`, the Potency is reported as inconclusive [activator, single point].
In the case of `O=C(Cn1cnc2c(nnn2Cc2ccccc2)c1=O)NCc1ccccc1Cl`, the Potency is reported as inconclusive [activator, single point].
With `Cc1onc(-c2ccccc2Cl)c1C(=O)NCC1CCCO1` (stereo unspecified) the Potency was “inactive”.
For `COc1ccc(-c2oc3cc(OC(C)=O)cc(OC(C)=O)c3c(=O)c2OC)cc1`, the Potency was “inactive”.
In the case of `CN(CCc1ccccc1)C(=O)c1cccc(NC(=O)Cc2cccc(NC(=O)C3CCCN(C(=O)c4ccccc4)C3)c2)c1` (stereo unspecified), the Potency is reported as “inactive”.
For `O=C(NC(=S)Nc1cccc2cccnc12)c1cccs1`, the Potency was active: 15.8 µM.
In the case of `COc1cccc(C(O)c2nc(-c3ccccc3OC)cs2)c1` (stereo unspecified), the Potency is reported as inconclusive [activator, single point].
For `COc1ccc(C=O)cc1CN1CCCN(Cc2ccccc2F)S1(=O)=O`, the Potency was inconclusive [activator, single point].
In the case of `Cc1cc(Cl)ccc1C(=O)C1CCCN(C(=O)c2cncs2)C1` (stereo unspecified), the Potency is reported as inconclusive [activator, full curve].
In the case of `CCCCN(CCCC)S(=O)(=O)c1ccc(C(=O)Nc2nnc(CSC)o2)cc1`, the Potency is reported as inconclusive [activator, partial curve].
With `O=C(COC(=O)c1ccc(F)cc1Cl)NC1CC1` the Potency was “inactive”.
In the case of `Cc1cccc(C2=NN(c3ccc(Br)cc3)[C@@H](C(=O)N3CCOC3=O)[C@@H]2C)c1`, the Potency is reported as inconclusive [activator, single point].
For `Cc1ccc(C(=O)NCC(=O)N2CCN(c3ccccc3O)CC2)s1`, the Potency was inconclusive [activator, single point].
In the case of `O=C(C[N+]1(CCO)CCOCC1)c1cccs1`, the Potency is reported as “inactive”.
For `CC(C)n1cnc2c(NCc3ccccc3)cc(OCC3CCN(C)CC3)cc21`, the Potency was inconclusive [activator, single point].
In the case of `O=C1OCCN1C(=O)[C@H]1[C@H](c2ccc(Cl)cc2)C(c2ccc(F)cc2)=NN1c1ccccc1`, the Potency is reported as inconclusive [activator, single point].
In the case of `O=C(NCCC(=O)N(Cc1ccco1)Cc1cccs1)c1ccc(Br)cc1`, the Potency is reported as inconclusive [activator, single point].

Reference: PubChem BioAssay AID652106 (National Center for Advancing Translational Sciences (NCATS), 2013)
Potency means the concentration at half of the fitted maximal effect; tags describe the fitted curve by direction and shape.
